The values below come from ChEMBL document CHEMBL4888484, “Replenishing the malaria drug discovery pipeline: Screening and hit evaluation of the MMV Hit Generation Library 1 (HGL1) against asexual blood stage Plasmodium falciparum ,using a nano luciferase reporter read-out” (2022).

Screen size: about 150,000 compounds; about 540 (0.36%) showed an effect of 50% or more. The list shows a part of the results.

The term % Inhibition denotes the relative decrease from the control value, in per cent.

The test system of the experiment is Plasmodium falciparum. The experiment can be described thus: Primary screen in NF54 nanoGlo assay, in single point, at 2uM, 72h; a lower Z score goes with more inhibition. The format is functional, Erythrocyte. The settings on record: timepoint 72 hour.
As to `COc1ccccc1Oc1nc(N2CCC(C)CC2)nc2c1CN(C(=O)c1ccc(F)cc1)CC2`, the “% Inhibition” value is 0% and the Z score worked out at 0.04.
For `Cc1nc(-c2ccc(-c3noc(Cc4ccc(F)cc4)n3)cc2)cs1`, the “% Inhibition” value was -10% and the Z score is 0.97.
For `COC[C@@]1(CO)CCN(c2nc3cc(S(N)(=O)=O)ccc3[nH]2)C1`, in that order: 1% and -0.17.
For `CC(C)CC(C)N(C)CC(=O)NC(C)(C#N)C1CC1` (stereo unspecified), in that order: -3% and 0.38.
For `CCN1CCN(c2c(CN(CC(C)C)C(=O)COC)c(C)nn2-c2cccc(F)c2)CC1`, in that order: 9% and -1.11.
Regarding `CCc1nn(C)cc1C(=O)Nc1cccc(N(C)C(C)=O)c1`, the “% Inhibition” value came out at 2% and the Z score was -0.43.
As to `Cc1cccc2nc(C(=O)N[C@H]3CC[C@@H]4CCC[C@@H]43)c(F)n12`, the “% Inhibition” value was 8% and the Z score is reported as -0.88.
As to `O=C(N[C@@H]1CCN(C(=O)Cc2cccc(Cl)c2)C[C@@H]1CO)c1cccnc1`, the “% Inhibition” value is on record as 2% and the Z score is listed as -0.2.
For `CC(=O)Nc1nc(Cn2cc(CN3CCOC[C@H]3C)nn2)cs1`, in that order: -4% and 0.7.
The corresponding values for `C[C@@](CO)(CCF)NC(=O)c1ccccn1` are 4% and -0.45.
`CC#CCN(Cc1ccco1)C(=O)C1(N2CCN(CC)CC2)Cc2ccccc2C1`: the “% Inhibition” value is -13% and the Z score is recorded as 1.87.
For `CCc1n[nH]cc1C(=O)N[C@@H](CCO)c1ccc(C)cc1`, in that order: -2% and 0.33.
The corresponding values for `CC(C)C(=O)Nc1c(-c2ccccn2)nsc1C(=O)NCCc1ccccc1` are -1% and 0.2.
For `CCOC(=O)c1c(CN2CCCC2)n(C)c2cc(-c3cccnc3)c(O)c(Cn3ccnc3)c12`, in that order: 58% and -10.36.
Consider `O=C(c1csc(-c2cccs2)n1)N1CCn2nc(CO)cc2C1`, for which the “% Inhibition” value is listed as -13% and the Z score is 2.26.
On to `CC(C)[C@H](Cn1ccnn1)NC(=O)COc1ccccc1`, for which the “% Inhibition” value was determined as 11% and the Z score was -1.42.
The corresponding values for `Cn1c(C(=O)N2CCC(NC(=O)NC3CCCCC3)CC2)c(Cl)c2ccccc21` are -2% and 0.33.
As to `CCc1noc(C)c1CNc1cnn(CC(F)F)c1`, the “% Inhibition” value was -5% and the Z score was found to be 0.67.
For `COc1ccccc1OCCn1cnnc1[C@H](O)c1ccccc1`, in that order: -3% and 0.45.
The corresponding values for `CN1CC2CCN(C(=O)C3(O)CCc4cc(Br)ccc4C3)C2C1` (stereo unspecified) are 9% and -1.61.
The corresponding values for `COC(=O)C1CC(Oc2ccccc2F)CN1S(=O)(=O)c1cc(Cl)ccc1OC` (stereo unspecified) are -7% and 1.41.
For the compound `CC(NC(=O)CC1CC2CCC1C2)c1ccccn1` (stereo unspecified), the “% Inhibition” value is -4% and the Z score worked out at 0.62.
The corresponding values for `CC(=O)N1CCC[C@H]1C(=O)Nc1ccc(-c2cccc(F)c2F)cn1` are 0% and 0.
For `CC(C)CN1C(=O)CC[C@@H](C(=O)N2CCCCC2)[C@@H]1c1cccnc1`, in that order: 31% and -3.53.
The corresponding values for `Cn1nc(C(F)(F)F)c2cc(C(=O)N3CCCC34CCC4)cnc21` are 0% and 0.06.
Consider `NC(=O)N[C@H]1CCCC[C@H]1CC(F)(F)F`, for which the “% Inhibition” value is listed as -3% and the Z score is given as 0.41.
The corresponding values for `Cc1c(Cl)cccc1-n1nc(CC(N)=O)nc1[C@@H](O)Cc1ccccc1` are -18% and 1.62.
The corresponding values for `CCC#CCN1CCC(CNC(=O)c2ccsc2)CC1` are -5% and 0.86.
The corresponding values for `CCCc1nn(-c2ccc(Cl)c(Cl)c2)c(CC)c1C(=O)NC1CC1` are -8% and 1.1.
As for `C[C@@H](C(=O)N(C)CCn1ccc2ccccc21)N1CCCC1=O`, the “% Inhibition” value was -7% and the Z score is given as 1.03.
The corresponding values for `Cc1ccc(-c2nc(C3(S(C)(=O)=O)CCCC3)no2)cc1` are -7% and 1.46.
The corresponding values for `N#C[C@@H](NC(=O)CCC(=O)c1ccc(F)cc1F)C1CCCCC1` are -12% and 1.31.
For `COC1CCCCCC1NC(=O)NC1CC=CC1` (stereo unspecified), in that order: -14% and 1.41.
For `CC[C@@H](c1nc2c3c(C)c(C)n(-c4ccc(F)cc4)c3ncn2n1)N1C(=O)c2ccccc2C1=O`, the “% Inhibition” value is recorded as -24% and the Z score turned out to be 3.03.
The corresponding values for `O=C(NC1CCC2(CC1)CC2)C1CCS(=O)(=O)CC1` are 13% and -1.46.
The corresponding values for `Cn1ncc(C2CC2)c1C(=O)N1CCCN(c2ccc(Cl)c(Cl)c2)CC1` are 4% and -0.64.
The corresponding values for `CCOc1cc(CN2C[C@H]3CC[C@@H](C2)[C@H]3O)cc(Cl)c1OCC` are 5% and -0.89.
For `CCOc1nc2cc(NC(=O)C[C@@H]3COC(=O)C3)ccc2o1`, the “% Inhibition” value is recorded as -31% and the Z score is on record as 3.59.
For `Cc1noc(C)c1CN1CC[C@H](NC(=O)Cc2ccsc2)C1`, in that order: 1% and -0.2.
For `Cc1c(Cl)cccc1C(=O)NCCC(=O)Nc1cccnc1`, in that order: 5% and -0.89.
For `C[C@@H](C(=O)NC1(C#N)CCCCC1)N1CCn2ccnc2C1`, in that order: -12% and 1.9.
With `Cn1nc(C2CC2)c2c1NC(=O)C[C@H]2c1ccc(-c2ccccc2C#N)o1`, the “% Inhibition” value is -17% and the Z score is recorded as 1.61.
The corresponding values for `Cc1cc(C(=O)N2CCC[C@H](Oc3cccnn3)C2)c(C)o1` are -4% and 0.45.
The corresponding values for `CO[C@@H](C)c1nc(CN(C)Cc2cn(C)nn2)cs1` are -12% and 1.43.
For the compound `Cc1cc(S(=O)(=O)N2CCN(Cc3ccccn3)CC2)sc1C`, the “% Inhibition” value was 10% and the Z score was -1.56.
The corresponding values for `CC(C)(C)n1c(=O)c2ccc(F)cc2n1CC(=O)Nc1cccc(Cl)c1` are -8% and 1.23.
The corresponding values for `CC1CN(c2nccnc2C#N)CCN1C(=O)NC1CCCC1C(C)(C)C` (stereo unspecified) are -2% and 0.37.
For `COc1ccc(C(=O)N2CCC3(CC2)C[C@@H](Cc2ccccc2)CCO3)cc1F`, in that order: 1% and -0.16.
In the case of `CC[C@H](C)c1ccc(NC(=O)c2cccc(COc3ccc4ccccc4c3)c2)cc1`, the “% Inhibition” value is listed as -25% and the Z score is 2.91.
For the compound `OCc1csc(-c2ccccc2-c2ccccc2)n1`, the “% Inhibition” value is on record as -10% and the Z score came to 1.28.
On to `N#Cc1ccc(C(=O)N2CCC[C@@H]2CC(=O)c2ccccc2)nc1`, for which the “% Inhibition” value is listed as -12% and the Z score is 1.21.
The corresponding values for `O=C(c1ccsc1)N1CCC[C@H](N(CCN2CCCC2)C(=O)C2CCC2)C1` are -2% and 0.26.
`O=S(=O)(NCc1csc(-c2cccnc2)n1)c1ccc2ccccc2c1`: the “% Inhibition” value is recorded as 3% and the Z score was -0.66.
Take `O=C(N[C@H]1CCc2[nH]c3ccc(Br)cc3c2C1)c1ccc(Cl)c(Cl)c1`: the “% Inhibition” value is reported as -9% and the Z score stood at 1.26.
`Cc1cccc(-n2c(-c3sc(Nc4ccccc4)nc3-c3ccccc3)nc3ccccc3c2=O)c1`: the “% Inhibition” value is on record as 38% and the Z score is -1.09.
For `O=C(Nc1ccc(F)cc1)[C@@H]1C[C@H](C(=O)NC2CCCCC2)CN(Cc2c[nH]c3ccccc23)C1`, in that order: -2% and 0.49.
`Cc1oc(-c2ccsc2)nc1CN1CCC[C@H](Cn2cncn2)C1`: the “% Inhibition” value is -1% and the Z score came out at 0.08.
For `COCC[C@]1(NC(=O)Nc2cccc(C)c2)CCN(C(=O)c2ccc(C)c(C)c2)C1`, in that order: -2% and 0.25.
With `CC1(C)C(O)CC1NC(=O)C1CCN1Cc1ccccc1` (stereo unspecified), the “% Inhibition” value is on record as -8% and the Z score turned out to be 0.76.
As to `Cc1scnc1NC(=O)c1cccc(N)c1`, the “% Inhibition” value is recorded as 1% and the Z score was -0.07.
For the compound `C[C@@H](c1ccon1)N(C)C(=O)c1n[nH]c2ccccc12`, the “% Inhibition” value is listed as -6% and the Z score stood at 0.78.
The corresponding values for `CN(C(=O)c1ccc(C(=O)O)s1)C(C1CC1)C1CC1` are -13% and 1.96.
For `CCO[C@@H](C)C(=O)NCCc1nc(C)c(Cl)s1`, in that order: -12% and 1.9.
`Nc1cc(C(=O)NCCc2cnn(-c3ccccc3)c2)n[nH]1`: the “% Inhibition” value is recorded as -11% and the Z score is on record as 1.35.
Consider `CCCOc1c(CN2C[C@]3(CCOC3)CCC2=O)cccc1OC`, for which the “% Inhibition” value is reported as 2% and the Z score is on record as -0.31.
The corresponding values for `CN(C)S(=O)(=O)c1ccc(C(=O)Nc2onc3c2CCC3)cc1` are -6% and 0.88.
The corresponding values for `C=CCN1CC(=O)N(CCn2ccnc2)C1=O` are 9% and -1.1.
For `C=CC[C@@H]1N(Cc2nnc3n2CCCCC3)CCCC1(C)C`, in that order: -5% and 0.93.
Consider `CN(Cc1nc(-c2cccs2)no1)C(=O)c1cccc(F)c1`, for which the “% Inhibition” value was -19% and the Z score amounted to 1.73.
For `CCC(=O)N(CCn1cccn1)c1nc2ccc(F)cc2s1`, in that order: 14% and -1.79.
The corresponding values for `CCN1c2ccc(Cl)cc2C(=O)NC12CCN(C(=O)NCc1ccccc1)CC2` are -6% and 0.72.
For `COCCNC(=O)C1CN(S(=O)(=O)c2ccccc2)CC1c1cccc(OC)c1OC` (stereo unspecified), in that order: -6% and 0.65.
For `CCN(C)C(=O)CCc1n[nH]c(-c2ccc(OCc3cccc(F)c3)cc2)nc1=O`, the “% Inhibition” value was 5% and the Z score is -0.64.
For `Cc1noc(C)c1CS(=O)(=O)[C@@H](C)C(=O)NCc1ccccc1`, in that order: 14% and -1.28.
For the compound `O=C(c1ccc(=O)[nH]c1)N1C[C@@H]2CC[C@H]1CN(Cc1ccccn1)C2`, the “% Inhibition” value was -7% and the Z score amounted to 1.5.
For `CCN1CCN(c2c(CN(C(=O)NC3CCCCC3)C3CC3)c(C)nn2-c2ccccc2)CC1`, in that order: -14% and 1.49.
`O=C(Nc1cccc(Cl)c1)NC1(CO)COC(c2ccc(N3CCOCC3)cc2)OC1` (stereo unspecified): the “% Inhibition” value came out at 24% and the Z score was -2.77.
For `Cc1ccc(-c2n[nH]c(NC(=O)c3c(F)cccc3Cl)c2C)o1`, in that order: 18% and -1.96.
The corresponding values for `COC[C@@H](O)CNC(=O)N[C@@H]1C[C@H]1c1ccc(Cl)cc1Cl` are -8% and 0.77.
As for `CCN(CC)Cc1cnc2c(C(=O)N3CCCCC34CC4)cnn2c1`, the “% Inhibition” value is -13% and the Z score is given as 1.9.
For `O=C(c1ccc(-c2nccs2)cc1)N1CCCC2(CCOCC2)C1`, the “% Inhibition” value came out at 6% and the Z score is listed as -1.15.
For `C=CCC1(CC=C)CCCCN1Cc1nccn1C`, in that order: -2% and 0.43.
The corresponding values for `Cn1cnnc1N1CCN(C(=O)NC[C@]2(C)C[C@H]2c2ccccc2)CC1` are -9% and 1.79.
